Read counts are not given, so values of variants with three or more changes are uncertain.
B1: LINE1-full (parent)
chain: UACGUAGGUGGUUUUCCCCUGAUAGUGCUAAGGGGGCCUGGAAGUUUGGACUGGGCAGAGCUCAACACAGCGUGGCAAAGUGGCUGUGGCUAGACUGCCUCUCUGGAUUCCUCGUCACUCAGCAGGGCAUCUCUGAGAGAAAUGCC

Variants of: B1
Test: self-cleavage, relative activity (ratio to wild type); higher = more cleavage; in vitro, sequencing; the parent is a self-cleaving ribozyme
In the case of G58A A59C A69G A121U, the self-cleavage is reported as 0.09. A22U A43U A92G A94G C99U showed a self-cleavage of 0.13. Variant A6U U45C G89A U91C G93U A129G A140G A142G has a self-cleavage of 0. For U14C U85C A92C U96A A142G, the self-cleavage was 0. With U15A A92G U119A the self-cleavage was 0.2. In the case of A117G G126A A140U, the self-cleavage is reported as 1.62. A31G A69U C71U U96A gave a self-cleavage of 0.02. With U1A A42G A136U the self-cleavage was 0.51. For U39C U81A A94G, the self-cleavage was 0.34. With G49A A64U U134C the self-cleavage was 0.38. C18A G72A U100C gave a self-cleavage of 1.9. With U29A A31U U47C A64U G74C U96C the self-cleavage was 0. In the case of A6G U15A U104C, the self-cleavage is reported as 1.46. U20C A42G G72A A138G gave a self-cleavage of 1.66. In the case of A64G A121G A141G, the self-cleavage is reported as 0.17. A65U A107G A136U A140U showed a self-cleavage of 0.19. U52C G86A U112C showed a self-cleavage of 0.05. Variant U26A U52C A79G U112C A136G has a self-cleavage of 1.84. Work on A117G G122A A140G yielded a self-cleavage of 1.82. With U14C U62C A107G the self-cleavage was 0.1. With U29C A30U A136G the self-cleavage was 1.18. A31U A94G A129U showed a self-cleavage of 0.11. G49U U52A A77G U130C A136G showed a self-cleavage of 2.39. Work on A42U U46A A79G A121G A141G yielded a self-cleavage of 0.92. In the case of U39C U73C A124U, the self-cleavage is reported as 0.42. For C38U U100A U112C A142G, the self-cleavage was 1.5. For U39A U52G A129G A136G, the self-cleavage was 2.12. A31G G34A U96C gave a self-cleavage of 0.1. Variant U45A G127A U130A has a self-cleavage of 1.4. U91C A94U U115A U132C gave a self-cleavage of 0.03. With U9C A50U U108A the self-cleavage was 1.23. G44U U45C A141G showed a self-cleavage of 1.66. In the case of A94G U130C A142U, the self-cleavage is reported as 0.16. With A42U U81A A138G the self-cleavage was 0.46. U5A U62C C110G gave a self-cleavage of 0.09. U20G G58U U87G U109C showed a self-cleavage of 0. With A57U A92G C101A U112A the self-cleavage was 0.12. In the case of U15A U26C A69G A117U, the self-cleavage is reported as 0. U81C U96A U115A showed a self-cleavage of 0.07. A2G C3G C61U A78G U96A showed a self-cleavage of 0.26. A94G U112A G125A U143C showed a self-cleavage of 0.27. With U1C A6U U87A the self-cleavage was 0. Variant A24G A92G A124U A141G has a self-cleavage of 0.19. In the case of U26C G35U U104A, the self-cleavage is reported as 0.79. U9G A138G A141G showed a self-cleavage of 0.88. Work on U14C U20A A42G U85A A140U yielded a self-cleavage of 0.22. For C28U U109A U112C U115A A142G, the self-cleavage was 1.19. C19U C56U A65U U96C gave a self-cleavage of 0.04. Work on A59U A77U U109A yielded a self-cleavage of 0.77. For A2G U52A A136G, the self-cleavage was 0.94. G27A A59G C66U A67U gave a self-cleavage of 0.07. With U12C U104C U119C the self-cleavage was 1.6. Variant U26G A57G U109A A129G has a self-cleavage of 1.69. U20C A59G C131U showed a self-cleavage of 0.29. With U1A G33U U73G A124G the self-cleavage was 1.04. Work on U20G A43G A136G yielded a self-cleavage of 1.15. A6U U14C U15C A69U U108C gave a self-cleavage of 0.68. For A2G U47G U130C, the self-cleavage was 0.57. Variant A30U A138U A142G has a self-cleavage of 1.36. U62A U115C A140G gave a self-cleavage of 0.01. With A57G A129G A141G the self-cleavage was 1.72. C3U A30G G35A A65U A79G gave a self-cleavage of 0.1. With U9A U23A U132C the self-cleavage was 1.42. Work on U1C A57G U87C yielded a self-cleavage of 0. For A22U A117G U132C, the self-cleavage was 0.98. Work on U39C U109C U143A yielded a self-cleavage of 0.43. Work on A50G U81A A141G yielded a self-cleavage of 1.1. Work on G4A U20A U52C A141G yielded a self-cleavage of 1.29. In the case of U5A A138U A140G, the self-cleavage is reported as 0.63. Work on A22G U73C C101U C118U yielded a self-cleavage of 1.51. G36C A42G A59U gave a self-cleavage of 0.84. U13C U62A A138G A142G showed a self-cleavage of 0.06. A6G U13C U52A U104C A138G showed a self-cleavage of 1.6. In the case of U20C U26C G58A A69U G75A A79U U134A, the self-cleavage is reported as 0.02. Work on U39A A43G U85C U134C yielded a self-cleavage of 0. With U96A G106C U119C A129G the self-cleavage was 0.04. For U29C A117G A124U, the self-cleavage was 1.84. For U12A A121G A141G, the self-cleavage was 1.21. A42G G60U U143C gave a self-cleavage of 0.04. A22G U26A A77G showed a self-cleavage of 1.75. With U29A C37U U39C A43G G86A C146U the self-cleavage was 0.05. In the case of C61A U87C A117G, the self-cleavage is reported as 0.06. Variant A24G U29C G75A U87C A138G has a self-cleavage of 0.45. In the case of A65U A138G A142G, the self-cleavage is reported as 0.2. Variant U73C U134C A136G has a self-cleavage of 1.15. U13C U47C U96A U115C G126A showed a self-cleavage of 0. Work on G60A A77G G82U U85C yielded a self-cleavage of 0.04. Work on G10U U23C A30U A57U yielded a self-cleavage of 0.29. Work on G4C G21U G32A G86A yielded a self-cleavage of 0.25. For U46G A57G U109A, the self-cleavage was 0.09. Variant G32A A78G U119C has a self-cleavage of 1.33. U87A U109C G126U gave a self-cleavage of 0.09. With A6U C18A U47C the self-cleavage was 0.78. U20C A31G A79G U87A C90A U112C A124U showed a self-cleavage of 1.02. Variant U15C U112A U143C has a self-cleavage of 1.68. A69U A92G G139A gave a self-cleavage of 0.07. With U12C A94G A124G the self-cleavage was 0.89. U13C U26A U52C gave a self-cleavage of 1.17. For G7U U73C U115A U119A, the self-cleavage was 2.3. With G34U A64G A107G the self-cleavage was 0.24. Work on U13C U62A A65G A140U yielded a self-cleavage of 0.14. Work on U52A A78G U115C yielded a self-cleavage of 0.93. With U85C U132A U134G the self-cleavage was 0.2. Work on U9A G35U U52C A117C A138G yielded a self-cleavage of 0. Work on U9C U20A U26C yielded a self-cleavage of 1.28. Work on U9C U15C G34U A78U A117G yielded a self-cleavage of 2.53. A24U A59U U85A U100C A136G showed a self-cleavage of 0. With U14A U46C A92U the self-cleavage was 0.63. Work on U14C A77C C123U U134C yielded a self-cleavage of 1.24. Variant U14A A138G U143C has a self-cleavage of 1.23. For A42G A50G U104A A107U, the self-cleavage was 0.57. Work on U14C U45C U73C A107U yielded a self-cleavage of 1.25. Work on G88A G97A U119A A121U yielded a self-cleavage of 0.05. U5A U23G C37U gave a self-cleavage of 0.77. Work on U13C A42U U104C yielded a self-cleavage of 1.28. Work on C76U A79G U112A yielded a self-cleavage of 1.84. For U73A U87A A138G A141G, the self-cleavage was 0.01. With A2G A69U G126A the self-cleavage was 0.1. Work on U15C U23C G36A A94G yielded a self-cleavage of 0.25. U1C U12C G127A gave a self-cleavage of 1.11. In the case of A30G G35U A59G A65G A129U, the self-cleavage is reported as 0.18. U15C U23A U29C C38U G60U gave a self-cleavage of 0.15. G7U A43G A140G gave a self-cleavage of 0.2. With U9C U29C U143C the self-cleavage was 1.13. U26C A69U A124G U132C showed a self-cleavage of 0. G53A A77G G89A showed a self-cleavage of 0.07. U12G A22G G36U U132C A136C gave a self-cleavage of 1.08. Variant A43G A94G U109A A136U has a self-cleavage of 0.15. With U26C G35C U46C U104C A117U the self-cleavage was 2.16. For G40U C71U A136G, the self-cleavage was 0.71. U1A U9G U47C U62A U134A gave a self-cleavage of 0.24. Variant U9G A22G A124G has a self-cleavage of 0.42. G55U A57G U115C U134A A142C gave a self-cleavage of 0.2. A43G G75A U85A U100C U115C C116A showed a self-cleavage of 0. U46C U52A U112C gave a self-cleavage of 2.13. Work on G41U C123U U132A yielded a self-cleavage of 1.2. Variant G75C C99U A124G has a self-cleavage of 0.1. For A31G C90G C101U A140U, the self-cleavage was 0.04. In the case of G55A U85C A121G, the self-cleavage is reported as 0.04. U39C A69G A136G showed a self-cleavage of 0.16. In the case of A42G U52C A79U, the self-cleavage is reported as 1.4. With A24G A141G C146U the self-cleavage was 0.69. Work on U15C A64C G72U A136G yielded a self-cleavage of 0.28. Work on A43G U81A U112C A141G yielded a self-cleavage of 2.16. Work on G126A A140G C145G yielded a self-cleavage of 1.42. Variant U14A U73G A117C has a self-cleavage of 0.57. With U46C U47C U104A the self-cleavage was 1.5. Variant U46C A64G C76U U87C has a self-cleavage of 0.11. In the case of U52A U119C A142G U143C, the self-cleavage is reported as 1.92. Variant U13C A59U A107G A142G has a self-cleavage of 1.31. Work on A2U A78C A94G yielded a self-cleavage of 0.28. Work on U14C U73C U91C yielded a self-cleavage of 0.48. U12G U15C A30U G72A U81C U102C C111U A136G gave a self-cleavage of 0.42. With U20A U47C A57G A65G the self-cleavage was 0.51. U26A G58A U73G A78G G86A U87A C113U A129G A138G showed a self-cleavage of 0.01. With A30U A64G U104A the self-cleavage was 0.15. Work on U39C G44A U119C yielded a self-cleavage of 1.7. Variant U13C U87A U112C A142G has a self-cleavage of 0.1. Variant U47A U108C A124U has a self-cleavage of 1.3. Work on U12C U39A A65G A140G yielded a self-cleavage of 0.07. With A57G U73C A129G A142G the self-cleavage was 0. U13C A57G A65U showed a self-cleavage of 0.24. A2G G7A U20C A79G showed a self-cleavage of 2.42. With U15C U102A U108C the self-cleavage was 1.53. C18U U87A U108C U109C C120U C145U gave a self-cleavage of 0.08. Variant U12G C61G A107G U132C has a self-cleavage of 0.42. In the case of U85C A94G U115A U134C, the self-cleavage is reported as 0.

Reference: the RNAGym collection of RNA variant scans (doi:10.7554/elife.90254)
